Source: PubChem BioAssay AID1347165 (National Center for Advancing Translational Sciences (NCATS), 2019)
In all, about 220,000 compounds went through this assay and about 5,700 (2.6%) were called active. Inconclusive means that the source gave no clear call. Such entries were picked first, then a sample of the others. Calls come from the whole dose curve; as a rule, active = well fitted inhibition curve with a large enough effect; inconclusive = small, poorly fitted or top-dose-only effect; inactive = no such curve, though single readings can be large or run the other way. Where the call is inconclusive, the potency comes from a doubtful curve fit.
Note: nearly all actives have a fitted effect of over 70% in size.
Potency is the fitted concentration of half-maximal effect; tags give direction and shape of the fitted curve.

What follows are compounds tested against Lysine-specific demethylase 5B (Homo sapiens) (UniProt Q9UGL1) (assay: Primary screen for KDM5B Histone Demethylases FDH-coupled qHTS). Conditions: FDH-coupled NADH fluorescence (FDH is formaldehyde dehydrogenase); series mostly up to 57.7 µM.
UniProt Q9UGL1, sequence (Q9UGL1 whole entry, looked up): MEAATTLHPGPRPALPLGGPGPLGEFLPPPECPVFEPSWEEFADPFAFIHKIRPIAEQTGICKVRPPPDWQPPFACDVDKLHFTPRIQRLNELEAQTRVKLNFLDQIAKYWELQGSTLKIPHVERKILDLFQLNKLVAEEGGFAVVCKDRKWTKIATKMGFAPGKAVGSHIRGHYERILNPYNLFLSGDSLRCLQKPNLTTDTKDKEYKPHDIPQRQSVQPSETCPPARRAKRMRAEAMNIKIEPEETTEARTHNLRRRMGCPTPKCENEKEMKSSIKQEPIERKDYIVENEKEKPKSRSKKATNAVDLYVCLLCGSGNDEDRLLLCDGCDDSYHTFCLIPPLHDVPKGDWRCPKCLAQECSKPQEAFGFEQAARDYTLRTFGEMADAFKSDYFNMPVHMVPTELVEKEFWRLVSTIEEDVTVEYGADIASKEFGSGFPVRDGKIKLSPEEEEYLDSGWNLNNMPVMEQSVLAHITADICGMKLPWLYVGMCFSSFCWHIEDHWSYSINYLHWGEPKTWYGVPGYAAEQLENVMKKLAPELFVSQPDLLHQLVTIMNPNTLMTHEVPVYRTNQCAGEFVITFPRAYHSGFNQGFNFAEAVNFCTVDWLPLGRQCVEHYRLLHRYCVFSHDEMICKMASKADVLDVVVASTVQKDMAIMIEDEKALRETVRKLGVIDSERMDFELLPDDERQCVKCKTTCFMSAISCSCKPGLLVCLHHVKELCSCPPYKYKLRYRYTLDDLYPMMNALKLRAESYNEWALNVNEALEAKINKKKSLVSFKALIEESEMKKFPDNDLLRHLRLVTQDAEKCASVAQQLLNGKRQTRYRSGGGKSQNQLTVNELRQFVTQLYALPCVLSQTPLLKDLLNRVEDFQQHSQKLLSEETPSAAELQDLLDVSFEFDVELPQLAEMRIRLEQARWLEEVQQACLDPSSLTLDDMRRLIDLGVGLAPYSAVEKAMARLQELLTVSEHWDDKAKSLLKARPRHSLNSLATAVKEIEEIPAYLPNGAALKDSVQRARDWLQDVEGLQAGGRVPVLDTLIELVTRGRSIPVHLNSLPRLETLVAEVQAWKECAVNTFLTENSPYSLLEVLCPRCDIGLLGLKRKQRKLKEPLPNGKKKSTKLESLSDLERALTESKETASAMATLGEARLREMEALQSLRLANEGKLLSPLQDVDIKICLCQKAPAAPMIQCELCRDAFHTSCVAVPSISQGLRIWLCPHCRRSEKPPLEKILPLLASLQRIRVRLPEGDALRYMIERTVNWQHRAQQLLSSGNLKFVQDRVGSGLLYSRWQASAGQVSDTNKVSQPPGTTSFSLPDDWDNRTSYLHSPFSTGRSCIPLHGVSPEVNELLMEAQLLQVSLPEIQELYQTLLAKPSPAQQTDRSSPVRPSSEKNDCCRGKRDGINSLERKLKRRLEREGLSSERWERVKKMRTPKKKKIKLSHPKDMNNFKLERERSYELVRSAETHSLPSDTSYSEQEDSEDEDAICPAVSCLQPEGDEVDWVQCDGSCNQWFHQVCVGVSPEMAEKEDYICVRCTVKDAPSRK
How it was run: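 Coupled FDH/NAD⁺ fluorescence readout. KDM5BΔAP 200 nM final; compound titration, 10 min RT preincubation; substrate mix 12.5 µM H3K4me3, 25 µM 2-OG, 50 µM Fe(II), 100 µM ascorbate, 0.25 mM NAD⁺, 0.25 U/mL FDH; ΔRFU over 30 min.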
`CC(C)(C)NC(=O)NC(=O)COc1ccc2ccc(=O)oc2c1` was tested, and the Potency was inconclusive: 39.8 µM [inhibitor, partial curve, poor fit].
In the case of `COc1ccccc1-c1cc(C(=O)NC(C)C)c2cnn(C)c2n1`, the Potency is reported as inconclusive: 25.1 µM [inhibitor, partial curve].
In the case of `COc1cccc(-c2ccnc3nc(-c4ccccc4OC)nn23)c1`, the Potency is reported as inconclusive: 15.8 µM [inhibitor, partial curve, poor fit].
With `Clc1ccc(N2CCN(c3ncnc4nc[nH]c34)CC2)cc1Cl` the Potency was “inactive”.
In the case of `COc1ccc(OC)c(-c2cc(C(=O)NCCc3ccccc3)c3c(-c4ccc(C)cc4)[nH]nc3n2)c1`, the Potency is reported as inconclusive: 31.6 µM [inhibitor, partial curve, poor fit].
For `NC(=O)c1ccccc1NCC(=O)c1ccc(F)cc1`, the Potency was inconclusive: 39.8 µM [inhibitor, single point].
For `COc1cc(C2CC(=O)Nc3c2c(C)nn3-c2nncc(-c3ccc(C)cc3)n2)cc(OC)c1O` (centres undefined), the Potency was “inactive”.
`Cc1ccc2cc(CCC(=O)O)c(=O)[nH]c2c1` was tested, and the Potency was inconclusive: 28.2 µM [inhibitor, single point].
`CC(C)NC(=O)N[C@H]1CCN2C(=O)c3cc(/C=C/c4ccccc4)ccc3NC(=O)[C@H]12` was tested, and the Potency was active: 35.5 µM.
In the case of `Cc1cc(C)cc(OC(=O)c2cnc(C)cn2)c1`, the Potency is reported as “inactive”.
In the case of `COc1ccc(Cc2nc3nccc(-c4ccccn4)n3n2)cc1`, the Potency is reported as inconclusive: 11.2 µM [inhibitor, partial curve].
For `Cc1ccc(S(=O)(=O)N2CCCCC2)cc1NC(=O)c1oc2c(F)cccc2c1C`, the Potency was “inactive”.
In the case of `Cc1noc(C)c1[S+](=O)([O-])N1CCC2(CC1)C(=NC1CCCC1)NC(=O)N2c1cc(F)cc(F)c1`, the Potency is reported as “inactive”.
With `COCc1noc([C@@H]2CN(Cc3ccc(C)cn3)C[C@H]2COC)n1` the Potency was inconclusive: 35.5 µM [inhibitor, partial curve, poor fit].
`Cc1cc(-c2ccccc2)n2nc(N)nc2n1` was tested, and the Potency was inconclusive: 28.2 µM [inhibitor, partial curve, poor fit].
With `CCC(=O)N1Cc2ccccc2CC2(CCCCN2Cc2cccnc2)C1` (centres undefined) the Potency was “inactive”.
In the case of `O=C(NC1CCN(c2cc(-c3ccccc3)[nH]n2)CC1)c1ccc(F)c(Cl)c1`, the Potency is reported as inconclusive: 35.5 µM [inhibitor, partial curve, poor fit].
For `COc1ccc(C(=O)N/N=C(\C)CC(=O)Nc2ccc3c(c2)OCCO3)c(OC)c1`, the Potency was “inactive”.
`CC(C)CS(=O)(=O)c1oc(-c2ccc(F)cc2)nc1S(=O)(=O)c1ccccc1` was tested, and the Potency was inconclusive: 2 µM [inhibitor, full curve, poor fit].
